PubChem BioAssay AID1346428 (National Center for Advancing Translational Sciences (NCATS), 2018)
“And” between values parts separate entries of the source, which are not always exact repeats. Equal entries are not always repeated. Hit rate of the full screen: of about 48,000 compounds, about 1,200 (2.5%) were called active. Another 2% or so got no clear call; they are omitted.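 The calls were made as follows: active = activation of at least 60% and not above a set upper limit (about 1 call in 100 departs from these limits); inconclusive = activation of 40% to 60%, or above that upper limit; inactive = activation under 40%.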 This is one part of the list.

Target: Probable G-protein coupled receptor 32 (Homo sapiens) (UniProt O75388)
Assay: qHTS for Agonists of Human Resolvin D1 Receptor DRV1; also: 0% is about no effect
Conditions: CHO-K1 GPR32 beta-arrestin PathHunter luminescence, 90 min; at 76.9 µM; active compounds read high; zero percent set by DMSO-only wells
Method in brief: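 Agonism was scored as beta-arrestin recruitment to ProLink-fused GPR32 in stably transfected CHO-K1 cells, giving a chemiluminescent beta-Gal signal; compounds were incubated 90 min at 37 °C.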

UniProt O75388, sequence (O75388 whole entry, looked up): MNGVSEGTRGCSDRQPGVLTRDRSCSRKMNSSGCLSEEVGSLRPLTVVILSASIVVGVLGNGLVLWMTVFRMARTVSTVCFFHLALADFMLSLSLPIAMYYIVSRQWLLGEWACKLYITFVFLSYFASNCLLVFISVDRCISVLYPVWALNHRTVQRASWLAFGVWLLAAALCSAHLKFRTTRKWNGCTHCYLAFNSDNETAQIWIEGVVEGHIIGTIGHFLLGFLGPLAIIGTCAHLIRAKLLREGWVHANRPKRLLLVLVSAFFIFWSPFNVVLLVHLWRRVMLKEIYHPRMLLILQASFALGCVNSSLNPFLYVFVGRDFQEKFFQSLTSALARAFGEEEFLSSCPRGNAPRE

Structure (SMILES)	activation
COc1ccc2c(c1)CC(C(=O)N1CCC(C(N)=O)CC1)CO2 (centres undefined)	inactive: -1.46%
COc1ccccc1N1CCN(C(=O)c2oc3ccccc3c2NC(=O)C(C)Oc2ccccc2)CC1 (centres undefined)	inactive: -11.9%
O=C(Nc1cc(Cl)cc(Cl)c1)c1ccc(F)c(S(=O)(=O)N2CCCCCC2)c1	inactive: -0.8%
Cc1ccc(C(C)C)c(OCCn2cc(C(=O)c3ccco3)c3ccccc32)c1	inactive: -6.22%
CCOc1ccc(-c2n[nH]c3c2C(c2ccccc2OC)N(c2ccc(Br)cc2)C3=O)cc1 (centres undefined)	inactive: -5.97%
CCOc1ccccc1CNC(=O)CCCN1C(=O)COc2ccc(C)cc21	inactive: -17.4%
COc1ccc(-c2cn(-c3ccc(C)cc3)c(S(=O)(=O)CC(=O)Nc3ccccc3)n2)cc1	inactive: 10.8%
Cc1oc2ncn(CC(C)C)c(=O)c2c1C(=O)Nc1cccc(C(F)(F)F)c1	inactive: -5.96%
O=C(Nc1ccc(Cl)c(Cl)c1)c1cc(S(=O)(=O)N2CCN(c3cccc(Cl)c3)CC2)ccc1F	inactive: -8.24%
CC(C)c1ccccc1NC(=O)CSc1nnc(COc2ccccc2)o1	inactive: 11.6%
Cc1ccc(CNC(=O)CN(C)S(=O)(=O)c2ccc(Br)s2)cc1	inactive: -13.4%
Cc1cc(Br)ccc1NC(=O)c1coc(=O)c2ccccc12	active: 71.9%
COc1ccc(-c2nnc(SCC(=O)Nc3ccccc3C)o2)cc1OC	inactive: 16.6%
CCn1c(=O)c2sccc2n2c(CCC(=O)N3CCN(c4ccccc4OC)CC3)nnc12	inactive: -3.69%
O=C(NCCCCc1ccccc1)c1nn(-c2ccccc2F)nc1CO	inactive: -4.23%
CC(C)OCCCn1c(SCC(N)=O)nc2c(sc3ccccc32)c1=O	active: 115%
Cc1nn(CCC(=O)NCc2cccc(Br)c2)c(=O)c2nn(-c3ccccc3)c(C)c12	inactive: -15%
O=C(c1ccc(CS(=O)c2ccccc2Cl)o1)N1CCN(c2cccc(C(F)(F)F)c2)CC1 (centres undefined)	inactive: 13.4%
CC(C)NC(=O)Cn1ccc2cc(S(=O)(=O)N3CCCCCC3)ccc21	inactive: 8.55%
CCCOc1ccc(C(=O)NCC(c2ccc(OC)cc2)N2CCCCC2)cc1 (centres undefined)	inactive: -10.5%
Cc1cccc(OCCCSc2nc(-c3ccc(C(C)(C)C)cc3)nc3cc(=O)[nH]n23)c1C	inactive: -26%

Structure (SMILES)	activation
O=S(=O)(c1ccccc1)c1nc(-c2cccs2)oc1N1CCCCC1	inactive: -5.56%
CC(NC(=O)c1ccc(CSc2nc3ccncc3n2Cc2ccc(F)cc2)cc1)c1ccccc1 (centres undefined)	inactive: -0.168%
Cc1cccc(-n2c(=O)c3c(c4cc(C)ccc4n3C)n(CC(=O)Nc3ccccc3Cl)c2=O)c1	inactive: 6.49%
CCCCCn1c(=O)[nH]c2cc(C(=O)NCc3ccc(F)cc3)ccc2c1=O	inactive: -19.1%
COCCNC(=O)c1ccc2c(c1)N(Cc1ccc(C(F)(F)F)cc1)C(=O)c1ccccc1S2	inactive: 17.5%
COc1ccc(N2CCN(C(=O)c3cn(C)c4ccc(S(=O)(=O)N(C)C5CCCCC5)cc4c3=O)CC2)cc1	inactive: 2.02%
COc1cc2ccccc2cc1C(=O)Nc1cccc(-c2nc3ccccc3o2)c1	inactive: 8.85%
Cc1ccccc1NC(=O)CCOc1ccccc1	inactive: -16.2%
Cc1ccc(NC(=O)c2c(C(=O)Nc3ccccc3)sc3nc(C)cc(=O)n23)cc1	inactive: -2.54%
COc1ccc(CNC(=O)C2CCN(S(=O)(=O)c3c(C)noc3/C=C/c3cccs3)CC2)cc1	inactive: -19.9%
CC(C(=O)NCc1cccc(Br)c1)n1ncn2cccc2c1=O (centres undefined)	inactive: -18.9%
Cc1ccccc1S(=O)(=O)Cc1ccc(C(=O)NCc2ccccc2Cl)o1	inactive: 42%
Nc1nn(-c2ccccc2)nc1C(=O)OCc1ccccc1Br	inactive: -5.18%
Cc1ccc(NC(=O)c2cc(CN3CCOCC3)on2)cc1Cl	inactive: 8.55%
COc1cc(-c2nc3ccc(Cl)cn3c2Nc2ccc3c(c2)OCO3)ccc1O	inactive: -11.5%
Cn1cc(-c2cc3n(n2)CCC(=O)N3CCCC(=O)Nc2ccccc2Cl)c2ccccc21	active: 60.3%
CC1=C(C(=O)Nc2ccc(C)cc2Cl)C2(CCCCC2)OC1=O	inactive: -23.4%
COc1ccc2c(c1)CCc1c(C(=O)Nc3c(C)nn(Cc4c(Cl)cccc4Cl)c3C)noc1-2	inactive: 3.67%
CCOC(=O)c1c(C)[nH]c(C)c1S(=O)(=O)NCC(=O)Nc1ccc(CC)cc1	inactive: 6.48%
CCc1ccccc1NC(=O)c1cc2sc(Cl)cc2n1CC	inactive: -15.8%
O=C(c1cccs1)c1cn(CCOc2ccc(F)cc2)c2ccccc12	inactive: -33.6%

Structure (SMILES)	activation
COc1ccccc1N1CCN(CCCNc2cc(=O)n(C)c(=O)n2C)CC1	inactive: -9.5% and inactive: -3.31%
O=C(Cn1cnc2onc(-c3ccc(F)cc3)c2c1=O)N1CCN(c2ccccc2F)CC1	inactive: 13.3%
CCOC(=O)c1noc2ncn(CC(=O)Nc3cc(Cl)ccc3OC)c(=O)c12	inactive: 12.1%
O=C(O)Cc1sc(Nc2ccc(C(=O)O)cc2)nc1-c1ccccc1	inactive: 5.77%
CC(=O)N1CCOc2cc(S(=O)(=O)Nc3cc(C(F)(F)F)ccc3Cl)c(C)cc21	inactive: -8.98%
CCCNC(=O)c1c(NC(=O)c2ccc(C)cc2)sc2c1CCCCC2	inactive: 0.26%
COc1ccc2c(c1)c1c(c(=O)n(Cc3ccccc3)c(=O)n1Cc1ccccc1)n2C	inactive: -1.82%
CCSc1ncc(Cl)c(C(=O)N(Cc2ccc(C(C)(C)C)cc2)C2CCS(=O)(=O)C2)n1 (centres undefined)	inactive: -26.2%
CCOC(=O)c1cccc(NC(=O)Nc2ccc3c(c2)N(C)C(=O)c2ccccc2S3)c1	inactive: 8.86%
O=C(CCCN1CCC(O)(c2cccc(C(F)(F)F)c2)CC1)c1ccc(F)cc1	inactive: 7.76% and inactive: -12.6%
CCOC(=O)c1c(C)oc2nc(C)nc(NCCCN3CCN(c4cc(Cl)ccc4C)CC3)c12	inactive: -26.4%
Cc1ccc(-c2noc(-c3nnn(CC(=O)Nc4cccc(C(F)(F)F)c4)c3N)n2)cc1	inactive: 1.72%
O=C(NCCCN1CCN(c2ccccc2F)CC1)C1COc2ccccc2C1 (centres undefined)	inactive: -16.7%
Cc1ccc(C(=O)NCC(=O)OCc2cc(=O)n3nc(C4CC4)sc3n2)cc1	inactive: 6.73%
O=C(O)c1cccnc1SCc1cccc(Cl)c1	inactive: 8.35%
COc1ccc(S(=O)(=O)Cc2ccc(C(=O)N3CCN(c4cc(C)ccc4C)CC3)o2)cc1	inactive: 21.2%
O=C(Nc1cccc(-c2nc3ccccc3[nH]2)c1)c1c(F)cccc1F	inactive: 10.9%
CC(C)c1ccc(S(=O)(=O)c2nnn3c2nc(N2CCOCC2)c2sccc23)cc1	inactive: -2.84%
CC1CCN(S(=O)(=O)c2ccc3c(ccn3CC(=O)NCc3ccc(N(C)C)cc3)c2)CC1	inactive: -10.6%
Cc1ccccc1OCC(=O)Nc1c(C)ccc2nsnc12	inactive: -2.67%
COc1nc(N)nc2c1ncn2[C@@H]1O[C@H](CO)[C@@H](O)[C@@H]1O	inactive: 4.02%

Structure (SMILES)	activation
CCC1CN(C(=O)N2CCC(C(=O)N3CCN(c4ccc(F)cc4)CC3)CC2)c2ccccc2O1 (centres undefined)	inactive: -11.3%
CCCCc1nn2c(=O)cc(COC(=O)C(C)Oc3ccccc3)nc2s1 (centres undefined)	inactive: 1.25%
Cc1c(C(=O)Nc2ccccc2Br)oc2ccc(S(=O)(=O)N3CCOCC3)cc12	inactive: -8.85%
COc1ccc(CCC(=O)NCc2nc3cccnc3n2Cc2cccc(OC)c2)cc1	inactive: -20.2%
COc1ccc(Cl)cc1NC(=O)Cn1nc(C(F)(F)F)c2c1CCC2	inactive: -3.49%
Cc1ccc(NC(=O)C2CCN(C(=O)c3cnn(-c4ccccc4)c3-n3cccc3)CC2)cc1	inactive: 2.24%
CCOC(=O)N1CCc2c(sc3c2c(=O)n(-c2ccc(CC)cc2)c(=O)n3CC(=O)c2ccccc2)C1	inactive: -14%
COc1ccc2c(c1)CC(NC(=O)Nc1ccc(NC(C)=O)cc1)CO2 (centres undefined)	inactive: -7.03%
CC(C)CNC(=O)c1c(-c2ccccc2)c(-c2ccccc2)nn(C)c1=O	inactive: -14.4%
Cc1ccccc1Cn1c(=O)n(CCCCC(=O)NCc2ccccc2Cl)c(=O)c2ccccc21	inactive: -14.5%
O=C(NCc1ccccc1Cl)c1ccc(NC(=O)c2nsc3ccccc23)cc1	inactive: -21.7%
COc1ccccc1CNC(=O)C1CCN(Cc2cc3ccccc3n2Cc2cccc(C)c2)CC1	inactive: -34.3%
O=C(CSc1nnc(-c2ccncc2)n1-c1ccccc1)Nc1ccc(Br)cc1	inactive: 2.04%
CCOc1ccc2nc(N3CCC(C(=O)Nc4ccc(Br)cc4F)CC3)sc2c1	inactive: -21.7%
CCOc1ccc(NC(=O)C2CCN(S(=O)(=O)c3ccc4c(c3)oc(=O)n4C)CC2)cc1	inactive: -6.34%
CCOc1cc(C)c(C(C)C)cc1S(=O)(=O)n1ccnc1CC	inactive: 2.33%
COc1ccc(Nc2ncnc3c2nc2n3CCCC2)cc1Cl	inactive: 8.28%
COc1nnc(-c2ccc(N3CCCCC3)c(NC(=O)c3ccccc3)c2)c2ccccc12	inactive: 47.8%
O=C(NCC(c1cccnc1)N1CCc2ccccc21)C(=O)Nc1ccccc1F (centres undefined)	inactive: -15.2%
CCc1cccc(NC(=O)c2cccc3c2C(=O)N(C2CCCCC2)C3)c1	inactive: -20.5%
CCOC(=O)c1c(C)n(S(=O)(=O)c2ccc(C)cc2)c2ccc(NS(=O)(=O)c3ccc(C)cc3)cc12	inactive: -18.3%
